Out of some 310,000 compounds screened, about 14,000 (4.5%) showed an effect of 50% or more. Effects have a minus sign here. The list shows a part of the results.
Biological target: human ether-à-go-go-related gene (hERG) potassium channel (human, UniProt Q12809)
Test: primary screen, population patch clamp on CHO cells stably expressing hERG
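Further: peak tail current of the secondary pulse compared with the same well before compound.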

human ether-à-go-go-related gene (hERG) potassium channel, sequence (Q12809 whole entry, looked up): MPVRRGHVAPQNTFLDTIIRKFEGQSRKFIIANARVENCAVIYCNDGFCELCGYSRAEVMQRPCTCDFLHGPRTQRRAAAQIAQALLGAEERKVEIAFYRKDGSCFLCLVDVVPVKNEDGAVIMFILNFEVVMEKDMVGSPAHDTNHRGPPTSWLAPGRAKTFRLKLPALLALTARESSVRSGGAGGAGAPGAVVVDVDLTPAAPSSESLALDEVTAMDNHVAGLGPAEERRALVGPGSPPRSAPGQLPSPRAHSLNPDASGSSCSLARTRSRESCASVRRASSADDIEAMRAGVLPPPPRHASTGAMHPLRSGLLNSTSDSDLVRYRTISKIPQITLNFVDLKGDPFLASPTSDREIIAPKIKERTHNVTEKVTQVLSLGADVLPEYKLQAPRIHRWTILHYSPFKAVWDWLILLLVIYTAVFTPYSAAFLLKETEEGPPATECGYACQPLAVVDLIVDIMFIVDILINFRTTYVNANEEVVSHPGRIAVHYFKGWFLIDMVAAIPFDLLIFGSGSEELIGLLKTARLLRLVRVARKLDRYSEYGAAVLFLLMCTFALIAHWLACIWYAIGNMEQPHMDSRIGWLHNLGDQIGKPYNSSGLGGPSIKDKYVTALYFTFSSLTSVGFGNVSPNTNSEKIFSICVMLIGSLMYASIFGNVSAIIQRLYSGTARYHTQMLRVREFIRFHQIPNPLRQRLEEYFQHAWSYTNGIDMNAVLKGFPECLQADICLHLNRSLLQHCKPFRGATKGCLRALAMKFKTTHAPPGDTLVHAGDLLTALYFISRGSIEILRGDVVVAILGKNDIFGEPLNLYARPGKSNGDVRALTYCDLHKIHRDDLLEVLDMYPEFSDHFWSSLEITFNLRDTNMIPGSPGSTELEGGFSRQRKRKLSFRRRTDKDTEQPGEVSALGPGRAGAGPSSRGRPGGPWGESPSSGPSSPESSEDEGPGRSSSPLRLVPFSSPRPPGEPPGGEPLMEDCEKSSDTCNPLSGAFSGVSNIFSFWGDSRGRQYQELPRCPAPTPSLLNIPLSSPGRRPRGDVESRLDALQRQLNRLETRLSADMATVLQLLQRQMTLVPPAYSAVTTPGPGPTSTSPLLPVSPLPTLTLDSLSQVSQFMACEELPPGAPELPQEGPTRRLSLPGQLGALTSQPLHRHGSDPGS

Row | SMILES | hERG current change (%, negative = inhibition) at 10uM [%]
1 | Cc1cc(C)c(C)c(S(=O)(=O)N2CCN(CC(=O)Nc3ccc([N+](=O)[O-])cc3)CC2)c1C | 15.4
2 | COc1cc(C(=S)NC2CCCCC2)ccc1O | -5.09
3 | COc1cc(OC)cc(C(=O)NNC(=O)NC2CCCCC2)c1 | 2.32
4 | O=C(c1ccc2ccccc2c1)C1CCCN(S(=O)(=O)c2cccnc2)C1 (stereo not shown) | 1.33
5 | CCCC(C)NC(=S)NC(=O)c1cc(S(=O)(=O)N2CCOCC2)ccc1C (stereo not shown) | -6.01
6 | Cc1nnc(SC(C)C(=O)Nc2ccc3ccccc3c2)[nH]c1=O (stereo not shown) | 27.1
7 | O=C(NCc1ccc(Cl)cc1)c1cccc(NC2=NC3CS(=O)(=O)CC3S2)c1 (stereo not shown) | 0.491
8 | Cc1csc(SCC(=O)Nc2nccs2)n1 | 7.54
9 | OCC(O)C(O)C(O)C(O)C1NCCS1 (stereo not shown) | 0.867
10 | CCC(C(=O)NCCc1ccc(OC)cc1OC)n1nc(C)n2c(cc3occc32)c1=O (stereo not shown) | -0.0107
11 | CCOc1ccc(S(=O)(=O)N2Cc3ccccc3CC2C(=O)O)cc1 (stereo not shown) | 11.2
12 | COc1cc(Br)c(CN2CCCN(C)CC2)cc1OC | -0.597
13 | NC(=O)CNCCC(c1ccccc1)c1ccccc1 | -36
14 | CCOC(=O)c1ccc(N2CSC3=C(C#N)C(c4cccs4)CC(=O)N3C2)cc1 (stereo not shown) | 5.74
15 | Cn1nc(C(=O)N2CCCCC2)c2c1-c1ccccc1S(=O)(=O)C2 | 14.7
16 | COC(=O)c1ccc(N2NC(=O)/C(=C/c3ccc(OC)c(OC)c3)C2=O)cc1 | 17.8
17 | CCC1=NC(c2ccc(OC)cc2OC)N(O)C1(C)C (stereo not shown) | -6.12
18 | COc1cccc2sc(N(CCCN(C)C)C(=O)c3ccc(S(=O)(=O)N4CCc5ccccc5C4)cc3)nc12.Cl | 3.58
19 | Cc1oc(C)c2c(=O)ccc3c(c12)OC(N)=C(C#N)C3c1ccccc1Cl (stereo not shown) | 18.6
20 | Cc1ccc(C(=O)Nc2ccccc2C(=O)NC2CCCCC2)cc1S(=O)(=O)N1CCOCC1 | 20.8
21 | O=C1CCc2ccc(OCCCCN3CCN(c4cccc(Cl)c4Cl)CC3)cc2N1 | -5.73
22 | COc1cc2cnc(-c3ccccc3)c(C(=O)c3ccc(F)cc3)c2cc1OC | 1.89

Row | SMILES | hERG current change (%, negative = inhibition) at 10uM [%]
23 | COc1cc2ccccc2cc1C(=O)N(CCN(C)C)c1nc2c(C)cccc2s1.Cl | 19.2
24 | O=c1c2ccccc2nc(-c2ccco2)n1/N=C/c1ccccc1O | 9.64
25 | Clc1ccc(-c2ccc(C=Nc3ccc(N4CCOCC4)cc3)o2)c(Cl)c1 | 9.64
26 | COc1ccc(C=C2C(=O)N(C)C(=O)N(C)C2=O)cc1COc1ccc(NC(C)=O)cc1 | 6.99
27 | Brc1cccc(OCCCCn2cncn2)c1 | 11.2
28 | O=C(C1=C[C@@H](c2ccccc2)C[C@@H](OCCCCO)O1)N1CCN(Cc2ccc3c(c2)OCO3)CC1 | -55.2
29 | Cc1cc(Br)ccc1OCCCCN1CCCCC1.O=C(O)C(=O)O | -78.9
30 | Cc1ccc2c(c1)N(CC(=O)N1CCCCCC1)C(=O)CO2 | -19.7
31 | O=C1c2cccc3cccc(c23)N1CN1CCN(c2ccccn2)CC1 | 6.61
32 | Cc1cc(OC(C)C(=O)NC2CC(C)(C)NC(C)(C)C2)c2c(C)cc(=O)oc2c1 (stereo not shown) | 12.9
33 | COc1ccc(N2CCN(C(=O)CN(c3ccc(OC)cc3)S(=O)(=O)c3ccccc3)CC2)cc1 | -22.7
34 | Cc1ccc(CCCOC(=O)CN2CCCCC2)cc1 | 1.34
35 | Cc1ccc(S(=O)(=O)N2CCC(=O)N(CCOCc3cccc(C(F)(F)F)c3)CC2)cc1 | -44.2
36 | Cc1cc(/C=C2\NC(=S)N(C)C2=O)ccc1N1CCCC1 | 18.3
37 | COC(=O)CSc1nnc(COc2cccc3ccccc23)o1 | 13.6
38 | Cc1cccc(N2C(=O)CC(Sc3nnc(C)s3)C2=O)c1 (stereo not shown) | 14.4
39 | Cc1cc(N(C)C)c(C#N)c(N2CCCCC2)n1 | -4.92
40 | c1ccc(CSc2ccc(-c3ccc4c(c3)OCO4)nn2)cc1 | -4
41 | COc1cc(NC(=O)CN2CCN(c3ccccn3)CC2)cc(OC)c1OC | 3.76
42 | CSC1=NCCCN1C(=O)c1c(-c2ccccc2Cl)noc1C | -8.19
43 | Cc1ccc(NC(=O)C2CCCN2C(=O)NC2CCCCC2)cc1C (stereo not shown) | 5.84
44 | Cc1ccc(SCC(=O)NC2CC3CCC(C2)N3C)cc1 (stereo not shown) | 4.2

Row | SMILES | hERG current change (%, negative = inhibition) at 10uM [%]
45 | Cc1c([C@H]2[C@@H](CC#N)C2(C)C)c2ccccc2n1C | -10.4
46 | O=C(CCc1ccccc1)Nc1nc2n(n1)C(c1ccc(Cl)cc1)CC(=O)N2 (stereo not shown) | 9.38
47 | Cc1nnc(Nc2ccc(C(=O)NCCO)cc2)c2ccccc12 | -0.987
48 | COCCNCCCCOc1c(Cl)cc(C)cc1Br | -41.5
49 | COc1ccc(-c2c[n+]3c(n2-c2ccc(C)cc2)CCCCC3)cc1.[Br-] | -48.2
50 | CCCC(=O)N=c1sc2c(OC)ccc(OC)c2n1C | 1.74
51 | COc1ccc(C2CC(=O)Oc3c2c(=O)n(C)c2ccccc32)c(OC)c1OC (stereo not shown) | 17.5
52 | O=C(c1ccc[nH]c1=S)N1CCN(S(=O)(=O)c2ccc(Br)cc2Cl)CC1 | -3.65
53 | Cc1nc2c(c(=O)c3ccccc3n2C)c(=O)n1-c1ccc(F)cc1 | -12.6
54 | COCCNC(=O)C(c1ccc(F)cc1)N(CCOC)C(=O)CCC(=O)Nc1nccs1 (stereo not shown) | 0.0239
55 | Cc1cccn2c(=O)c(C(=O)NCCCN3CCCCC3C)c(O)nc12 (stereo not shown) | -2.22
56 | COc1ccc(/C(N)=N/OC(=O)c2cccs2)cc1 | 15.6
57 | CCN(CC)C(=O)CSc1nnc(COc2ccccc2)n1CC | 2.69
58 | CC(=O)c1ccc(NC(=O)C2=CC(c3ccco3)=NS(=O)(=O)N2C)cc1 | -7.75
59 | COc1ccc(S(=O)(=O)NCC(c2cccnc2)N2CCN(Cc3ccccc3)CC2)cc1C (stereo not shown) | -79.6
60 | COc1ccc(-n2c(O)c(C(C)=NCc3ccco3)c(=O)[nH]c2=O)cc1 | -3.34
61 | COc1ccccc1CNC(=O)/C=C/c1cc2c(cc1Br)OCO2 | 19.8
62 | CC(C)CCc1c(O)nc(SCC(C)C)[nH]c1=O | -14.2
63 | O=C(Cn1cc(C=C2C(=O)NC(=O)NC2=O)c2ccccc21)NCC1CCCO1 (stereo not shown) | 17.2
64 | COc1ccc(N(CC(=O)Nc2cccc(C)c2C)S(=O)(=O)c2c(C)[nH]c(=O)[nH]c2=O)cc1 | 1.67
65 | CCC12CN(C(=O)c3ccc(C)cc3)CC(CC)(CN(C(=O)c3ccc(C)cc3)C1)C2=O | -33.3
66 | O=C(NCCc1ccco1)C(=O)NCC1OCCCN1S(=O)(=O)c1ccccc1 (stereo not shown) | -1.76

Row | SMILES | hERG current change (%, negative = inhibition) at 10uM [%]
67 | O=C(Nc1cc(C(F)(F)F)ccc1-n1cncn1)c1ccc(F)cc1Cl | -38.3
68 | O=C(COC(=O)c1cnccn1)NCc1ccc2c(c1)OCO2 | 9.57
69 | CC(C)c1ccccc1NC(=O)CNCCc1ccc(C(F)(F)F)cc1.O=C(O)C(=O)O | -48.1
70 | COc1ccc(C)cc1NC(=S)Nc1ccccc1SC | -4.13
71 | O=C(/C=C/c1ccc(Cl)c([N+](=O)[O-])c1)c1ccc(O)cc1 | -1.19
72 | CC(=O)Oc1ccc(-c2cccc(C(=O)Oc3ccccc3)c2)cc1 | 16.4
73 | COc1cc(OC)cc(C(=O)NCC(=O)OCC(=O)NC(C)(C)C)c1 | 8.34
74 | CCCCCCC(=O)NCC(=O)OCC(=O)c1ccccc1 | -18.1
75 | CCCc1c(C)nn(C(=O)/C(C#N)=N/Nc2ccccc2[N+](=O)[O-])c1C | 21.1
76 | Cc1ccc(CNc2ncc(-c3ccc4c(c3)OCO4)n2C)cc1.O=C(O)C(=O)O | -59
77 | Br.Oc1ccc(-c2cn3ccccc3n2)cc1 | 11.4
78 | Cc1ccc(OCCNCC(O)COc2ccccc2)cc1.O=C(O)C(=O)O (stereo not shown) | -44.2
79 | COc1cc(CCC(=O)Nc2cccc(C(F)(F)F)c2)cc(OC)c1OC | -2.51
80 | Cc1ccccc1OCC1Cc2c(nc(N)c(C#N)c2N)O1 (stereo not shown) | -1.3
81 | CCN(CC)c1cc(C)c(C#N)c2nc3ccccc3n12 | -1.47
82 | Cc1cc(OCc2nnc(SC(C)C(=O)O)n2-c2ccccc2)ccc1Cl (stereo not shown) | 21.7
83 | Cc1cc(C(=O)NCc2cc(F)cc3c2OCOC3)nn1C | 23.1
84 | CCOc1ccc(CCNS(=O)(=O)c2ccc3c(c2)NC(=O)CO3)cc1OCC | 5.62
85 | COc1cccc(N2CCN(C(=O)c3oc4ccccc4c3NC(=O)Cc3ccc(OC)c(OC)c3)CC2)c1 | -14.1
86 | Cn1cc(Br)c(C(=O)NNC(=O)c2ccc(Cl)cc2)n1 | -13.2
87 | CNC(=O)Nc1cc(NC(=O)NC)cc(C(F)(F)F)c1 | 5.81
88 | COc1ccc(Cl)cc1NC(=O)C1Cc2ccccc2CN1S(C)(=O)=O (stereo not shown) | 14.7

Source: publication PMC4336329 (PLoS ONE, 2015)
